# Measured values: PubChem BioAssay AID1030 (National Center for Advancing Translational Sciences (NCATS), 2008)
# Hit rate of the full screen: of about 220,000 compounds, about 16,000 (7.3%) were called active. The inconclusive results got no clear call from the source; some entries with a clear call stand among them for comparison. Calls come from the whole dose curve; as a rule, active = well fitted inhibition curve with a large enough effect (not every such curve was filed as active); inconclusive = small, poorly fitted or top-dose-only effect, or another doubt; inactive = no such curve, though single readings can be large or run the other way. No potency is given beside an inconclusive call; the fits are too rough.
# Biological target: Aldehyde dehydrogenase 1A1 (Homo sapiens) (UniProt P00352)
# Assay: qHTS Assay for Inhibitors of Aldehyde Dehydrogenase 1 (ALDH1A1)
# Conditions: Purified ALDH1A1, NADH fluorescence, propionaldehyde substrate; series mostly up to 75.3 µM
# Potency is the fitted concentration of half-maximal effect; tags give direction and shape of the fitted curve.
# Chain of UniProt P00352 (P00352 whole entry, looked up): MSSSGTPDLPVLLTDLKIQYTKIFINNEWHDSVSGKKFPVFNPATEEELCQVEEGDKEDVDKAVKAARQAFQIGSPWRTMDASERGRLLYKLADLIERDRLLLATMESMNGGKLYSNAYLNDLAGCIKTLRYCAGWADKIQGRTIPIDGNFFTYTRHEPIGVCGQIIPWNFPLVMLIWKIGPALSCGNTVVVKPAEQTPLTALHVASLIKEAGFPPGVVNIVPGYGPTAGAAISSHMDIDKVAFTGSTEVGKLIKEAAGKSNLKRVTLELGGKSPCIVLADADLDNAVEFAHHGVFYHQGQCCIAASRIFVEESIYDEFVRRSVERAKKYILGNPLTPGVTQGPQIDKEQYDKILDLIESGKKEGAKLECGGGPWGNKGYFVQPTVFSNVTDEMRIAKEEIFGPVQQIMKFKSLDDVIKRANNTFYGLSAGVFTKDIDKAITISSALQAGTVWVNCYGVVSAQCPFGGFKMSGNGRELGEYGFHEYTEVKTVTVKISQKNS
row,SMILES,Potency
1,CCN(CC)S(=O)(=O)c1cccc(-c2nnc(SCC(=O)NCCC3=CCCCC3)n2N)c1,"inconclusive [inhibitor, single point]"
2,COC(=O)C(NC(=O)c1ccccc1)(Nc1nc(C)cs1)C(F)(F)F (stereo not drawn),inactive
3,Cc1ccc2nc(SCC(=O)c3cc(C)n(C)c3C)[nH]c2c1,"inconclusive [inhibitor, partial curve, poor fit]"
4,Cc1ccc(NC(=S)NNC(=O)c2c(Cl)c(C)nn2C)cc1,"inconclusive [inhibitor, single point]"
5,O=C(CS(=O)(=O)c1c[nH]c2ccccc12)N1CCCCCC1,"inconclusive [inhibitor, single point]"
6,Cn1cc(C(=O)Nc2ccc(F)c(Cl)c2)cn1,inactive
7,O=C(Cc1ccccc1)Nc1ccccc1N1CCOCC1,"inconclusive [inhibitor, full curve, poor fit]"
8,CCN(CC)S(=O)(=O)c1ccc(Cl)c(NC(=O)c2cc(Cl)cc(Cl)c2)c1,inactive
9,CN(C)c1nc(OCCNC(=O)Nc2ccc(Cl)cc2)nc(N(C)C)n1,"inconclusive [inhibitor, partial curve]"
10,CCN1CCN(C(=O)CCCCCn2c(=O)[nH]c3cc(C(=O)OC)ccc3c2=O)CC1,"inconclusive [inhibitor, partial curve]"
11,Cc1ccc(S(=O)(=O)N2CCOC2CNC(=O)C(=O)NCCc2c[nH]c3ccccc23)cc1 (stereo not drawn),"inconclusive [inhibitor, single point]"
12,O=C(CN1CCOCC1)Nc1nc2cc([N+](=O)[O-])ccc2s1,"inconclusive [inhibitor, single point]"
13,CC(C)CN(C(=O)COC(=O)c1ccccc1SCC(=O)NC1CCCCCC1)C1CCS(=O)(=O)C1 (stereo not drawn),inactive
14,Cc1ccc(S(=O)(=O)Nc2ccc(-c3cn4ccc(C)cc4n3)cc2)cc1,inactive
15,Cc1cc(C)c(N2CCN(S(=O)(=O)N3CCCCCC3)CC2)c(C)c1,"inconclusive [inhibitor, single point]"
16,Cc1cc2cc3c(cc2nc1SCC(=O)Nc1nc(C)c(C)s1)OCO3,"inconclusive [inhibitor, single point]"
17,O=C(NC(=S)Nc1ccc(S(=O)(=O)Nc2nccs2)cc1)c1cccc(F)c1,"inconclusive [inhibitor, single point]"
18,CCSc1nc(=O)n(-c2ccccc2)c(C)c1C(C)=O,"inconclusive [inhibitor, single point]"
19,COc1ccc(CCNC(=O)C2CCCN(c3nn4c(=O)cc(C)nc4s3)C2)cc1OC (stereo not drawn),"inconclusive [inhibitor, partial curve]"
20,COc1ccccc1OCC(=O)N(Cc1nc(-c2ccc(Cl)cc2)no1)C(C)C,"inconclusive [inhibitor, single point]"
21,CC(C)(C)c1ccc(S(=O)(=O)N2CCCC2C(=O)N2CCOCC2)cc1 (stereo not drawn),"inconclusive [inhibitor, single point]"
22,COc1ccccc1N1CCN(C(CNC(=O)c2ccco2)c2cccnc2)CC1 (stereo not drawn),"inconclusive [inhibitor, single point]"

row,SMILES,Potency
1,Cc1sc(NC(=O)CN(CCc2ccccc2)C(=O)C2CC2)c(C(N)=O)c1C,inactive
2,Cc1ccc(-c2nnc(-c3ccccc3)c(-c3ccccc3)n2)cc1,"inconclusive [inhibitor, single point]"
3,Cc1cc2ccc(=O)oc2cc1OC[C@@H](O)C(C)(C)O,"inconclusive [inhibitor, partial curve]"
4,O=C(NC(=S)Nc1ccc(N2CCOCC2)cc1)c1ccc(Cl)cc1,"inconclusive [inhibitor, single point]"
5,CC(=O)Nc1ccc(N2C(=O)CC(c3ccccc3)CC2=O)cc1,inactive
6,CN(CCCNC(=O)CSc1cc(=O)n(C)c2ccc(Cl)cc12)Cc1ccccc1,inactive
7,CC12CCC(C(=O)N(NC(=O)c3cc(Cl)ccc3O)C1=O)C2(C)C (stereo not drawn),"inconclusive [inhibitor, single point]"
8,CC(NC(=O)c1ccc(OC2CCN(C(=O)c3cccnc3)CC2)cc1)C1CC1 (stereo not drawn),"inconclusive [inhibitor, single point]"
9,CCCC(=O)OCCNc1cc(SCCC(=O)OC)c2nonc2c1[N+](=O)[O-],active: 10 µM
10,O=S(=O)(/C=C/c1ccccc1)N1CCN(c2nc(-c3cccnc3)nc3ccccc23)CC1,"inconclusive [inhibitor, partial curve]"
11,COc1ccccc1N1CCN(C(=O)c2c(-c3ccccc3)noc2C)CC1,"inconclusive [inhibitor, partial curve]"
12,Cc1nn(-c2ccccc2)cc1C(c1c(N)[nH]c(=S)[nH]c1=O)c1c(N)[nH]c(=S)[nH]c1=O,inactive
13,CCOc1ccc(C(=O)N2CCN(c3cccc(Cl)c3)CC2)cc1,inactive
14,O=C1c2ccccc2C(=O)N1OCc1ccccc1[N+](=O)[O-],active: 25.1 µM
15,Cc1sc2nc(SCc3ccccc3)n(Cc3ccco3)c(=O)c2c1C,inactive
16,CCN(CC)CC(=O)c1c[nH]c2ccc(OC)cc12,"inconclusive [inhibitor, single point]"
17,Fc1ccc(-c2cc3nc(-c4ccccc4)cc(N4CCOCC4)n3n2)cc1,"inconclusive [inhibitor, partial curve]"
18,COc1ccc(C)cc1-n1c(C)cc(C=O)c1C,"inconclusive [inhibitor, single point]"
19,O=C(CSc1ccc2ccccc2c1)NCc1cccs1,"inconclusive [inhibitor, partial curve]"
20,CC(C)(C)C1CCC2(CC1)Nc1cccc3cccc(c13)N2,"inconclusive [inhibitor, single point]"
21,CCOC(=O)C1=C(COC(=O)C2(C)CC2(Cl)Cl)NC(=O)NC1c1ccccc1 (stereo not drawn),"inconclusive [inhibitor, single point]"
